The values that follow come from PMC4336329 (PLoS ONE, 2015).

The campaign covered roughly 310,000 compounds. About 14,000 (4.5%) showed an effect of 50% or more. Effects have a minus sign here. This is one part of the list.
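Further: peak tail current of the secondary pulse compared with the same well before compound.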

human ether-à-go-go-related gene (hERG) potassium channel, sequence (Q12809 whole entry, looked up): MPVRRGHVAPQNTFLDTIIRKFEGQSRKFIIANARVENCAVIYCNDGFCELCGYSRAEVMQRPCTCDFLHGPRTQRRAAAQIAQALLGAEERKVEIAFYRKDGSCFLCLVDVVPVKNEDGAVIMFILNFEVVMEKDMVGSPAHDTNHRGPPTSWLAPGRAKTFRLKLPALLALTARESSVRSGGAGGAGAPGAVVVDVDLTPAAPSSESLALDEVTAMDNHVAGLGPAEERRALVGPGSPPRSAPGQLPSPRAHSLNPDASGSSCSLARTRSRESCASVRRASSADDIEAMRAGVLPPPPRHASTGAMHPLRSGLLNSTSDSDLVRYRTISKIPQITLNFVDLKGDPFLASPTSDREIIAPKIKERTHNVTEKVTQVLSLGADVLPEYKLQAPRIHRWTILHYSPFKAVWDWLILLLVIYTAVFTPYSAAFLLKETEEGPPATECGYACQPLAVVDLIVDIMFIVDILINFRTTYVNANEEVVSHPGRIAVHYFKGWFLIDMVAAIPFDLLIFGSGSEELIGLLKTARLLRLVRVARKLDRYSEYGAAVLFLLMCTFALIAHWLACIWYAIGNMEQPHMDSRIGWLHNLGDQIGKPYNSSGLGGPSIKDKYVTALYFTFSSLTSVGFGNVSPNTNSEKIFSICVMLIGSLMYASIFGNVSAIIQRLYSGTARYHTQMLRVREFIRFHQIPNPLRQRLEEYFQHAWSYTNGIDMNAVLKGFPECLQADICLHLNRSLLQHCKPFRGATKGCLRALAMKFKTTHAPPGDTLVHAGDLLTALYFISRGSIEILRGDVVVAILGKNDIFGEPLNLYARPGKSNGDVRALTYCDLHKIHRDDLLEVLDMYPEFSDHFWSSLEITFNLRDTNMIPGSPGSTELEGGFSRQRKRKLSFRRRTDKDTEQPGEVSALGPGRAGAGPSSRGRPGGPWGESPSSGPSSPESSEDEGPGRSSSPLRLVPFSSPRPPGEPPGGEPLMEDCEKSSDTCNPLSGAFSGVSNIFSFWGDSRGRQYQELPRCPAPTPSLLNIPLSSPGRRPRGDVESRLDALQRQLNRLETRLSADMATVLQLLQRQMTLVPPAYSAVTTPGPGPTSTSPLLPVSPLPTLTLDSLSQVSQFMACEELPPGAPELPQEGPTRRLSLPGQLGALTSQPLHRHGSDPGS

This assay concerns the target human ether-à-go-go-related gene (hERG) potassium channel (human, UniProt Q12809). Kind of assay: primary screen, population patch clamp on CHO cells stably expressing hERG.
Consider `NC(=O)[C@@H]1CCCN1C(=O)c1ccc2nc(Cc3cccc(Cl)c3)oc2c1`, for which the “hERG current change (%, negative = inhibition) at 10uM” value is listed as -5.99%.

Regarding `CCOc1ccc(-c2c(C)n([O-])c3c([n+]2=O)CCCC3)cc1`, the “hERG current change (%, negative = inhibition) at 10uM” value is listed as -1.2%. As for `O=C(CSc1nccn(-c2ccc(Br)cc2)c1=O)Nc1ccccc1F`, the figure is 11.1%; as for `N#C/C(=C\c1cc([N+](=O)[O-])c(N2CCCCC2)cc1N1CCCCC1)c1nn(-c2ccccc2)c(N)c1C#N`, 6.77%. The figure for `O=C1CC(C(=O)NCc2ccccc2)N=C(N2CCCCC2)N1` (centres unmarked) is 4.85%. Take `CN1CCN(c2ccc(S(=O)(=O)N3CCCCC3)cn2)CC1`: the “hERG current change (%, negative = inhibition) at 10uM” value is -6.33%.

In the case of `O=C(O)CCc1ccc(-c2ccccc2)n1CC(=O)O`, the “hERG current change (%, negative = inhibition) at 10uM” value is on record as 12.4%.

On to `Cc1ccccc1-n1c(O)c(C(c2ccncc2)c2c(O)n(-c3ccccc3C)c(=O)[nH]c2=O)c(=O)[nH]c1=O`, for which the “hERG current change (%, negative = inhibition) at 10uM” value came to 7.64%. As for `CC/C(=N\NC(=O)c1ccoc1C)c1ccc(C)o1`, the figure is -14.3%; as for `COc1cc2c(cc1OC)CN(C(=O)c1ccc(S(=O)(=O)N3CCCC3)cc1)CC2`, 8.19%; as for `Cc1ccc(C)c(NC(=S)NCC(c2ccccc2)N(C)C)c1` (centres unmarked), -17.6%. The figure for `COc1ccccc1CN1CCCCC1C(=O)O` (centres unmarked) is 9.48%. The figure for `COc1ccc(/C=C(\NC(=O)c2ccc([N+](=O)[O-])cc2)C(=O)NCCCn2ccnc2)cc1` is -69.4%.

Turning to `N#CCSc1nc2c(c(=O)n1Cc1ccco1)C1(CCCC1)Cc1ccccc1-2`, the “hERG current change (%, negative = inhibition) at 10uM” value is on record as 13.4%. As for `Cc1nc(CNC(=O)c2cc(COc3ccc(F)cc3Cl)on2)cs1`, the figure is -5.88%. With `COc1cc(/C=C(\C#N)C(=O)c2ccc(O)c(O)c2)cc(I)c1O`, the “hERG current change (%, negative = inhibition) at 10uM” value amounted to 8.34%.

For the molecule `Cl.OC(COc1cccc(OCC(O)CN2CCOCC2)c1)CN1CCOCC1` (centres unmarked), the “hERG current change (%, negative = inhibition) at 10uM” value is 7.41%. As for `O=C1[C@@H]2Cc3c([nH]c4ccccc34)CN2C(=O)CN1CCCO`, the figure is 16.7%. As for `Clc1ccc(C(c2ccccc2)c2ncc[nH]2)cc1` (centres unmarked), the figure is 9.27%; as for `COc1ccc(CS(=O)c2nc(C)cc(C)c2S(C)(=O)=O)cc1` (centres unmarked), 22.8%.

As to `Cn1c(=O)c2c(nc(CN3CCN(C(=O)c4ccco4)CC3)n2CCc2ccccc2)n(C)c1=O`, the “hERG current change (%, negative = inhibition) at 10uM” value is listed as -66.3%. The figure for `CCOC(=O)c1ccc(N2NC(=O)/C(=C/c3ccc(OC(=O)c4ccco4)c(OC)c3)C2=O)cc1` is 14.3%; for `O=C(CSC1=NS(=O)(=O)c2ccccc2N1)N1CCCCC1` it is 2.67%.
